# Laboratory results from article PMC4336329 (PLoS ONE, 2015).
# Hit rate of the full screen: of about 310,000 compounds, about 2,200 (0.71%) showed an effect of 50% or more. The effect is printed as a negative number. The list shows a part of the results.
# Molecular target: human ether-à-go-go-related gene (hERG) potassium channel (human, UniProt Q12809)
# Assay: primary screen, population patch clamp on CHO cells stably expressing hERG
# Chain of human ether-à-go-go-related gene (hERG) potassium channel (Q12809 whole entry, looked up): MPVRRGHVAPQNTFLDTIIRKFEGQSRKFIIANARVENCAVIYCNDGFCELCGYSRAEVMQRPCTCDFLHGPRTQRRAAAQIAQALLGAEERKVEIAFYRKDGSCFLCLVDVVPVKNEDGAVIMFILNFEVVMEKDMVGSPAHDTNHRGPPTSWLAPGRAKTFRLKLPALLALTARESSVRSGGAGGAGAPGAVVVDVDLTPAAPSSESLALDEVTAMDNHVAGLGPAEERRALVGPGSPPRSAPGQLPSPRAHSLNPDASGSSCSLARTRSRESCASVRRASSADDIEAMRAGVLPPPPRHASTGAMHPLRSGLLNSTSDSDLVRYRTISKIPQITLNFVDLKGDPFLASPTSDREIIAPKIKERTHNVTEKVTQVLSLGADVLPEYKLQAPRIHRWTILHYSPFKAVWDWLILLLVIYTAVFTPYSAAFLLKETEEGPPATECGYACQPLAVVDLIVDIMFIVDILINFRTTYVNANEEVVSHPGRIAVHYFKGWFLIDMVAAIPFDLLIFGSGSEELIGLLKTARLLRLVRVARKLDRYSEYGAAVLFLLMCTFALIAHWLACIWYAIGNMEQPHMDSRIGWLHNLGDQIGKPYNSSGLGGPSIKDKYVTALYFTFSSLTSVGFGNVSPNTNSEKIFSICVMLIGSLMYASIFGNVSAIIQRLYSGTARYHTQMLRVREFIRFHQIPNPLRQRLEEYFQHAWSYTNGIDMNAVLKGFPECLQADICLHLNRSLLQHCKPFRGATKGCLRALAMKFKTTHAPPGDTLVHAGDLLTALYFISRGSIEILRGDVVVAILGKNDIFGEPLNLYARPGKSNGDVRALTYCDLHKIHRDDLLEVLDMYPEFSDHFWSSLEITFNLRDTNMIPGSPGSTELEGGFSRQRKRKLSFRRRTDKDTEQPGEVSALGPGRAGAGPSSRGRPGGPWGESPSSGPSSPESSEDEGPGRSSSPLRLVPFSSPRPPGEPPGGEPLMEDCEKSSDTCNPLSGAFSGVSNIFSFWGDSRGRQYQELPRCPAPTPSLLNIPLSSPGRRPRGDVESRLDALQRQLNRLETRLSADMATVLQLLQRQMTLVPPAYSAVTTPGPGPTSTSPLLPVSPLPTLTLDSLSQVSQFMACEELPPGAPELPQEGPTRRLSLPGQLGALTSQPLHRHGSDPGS
row,Compound,"hERG current change (%, negative = inhibition) at 1uM [%]"
1,CCN(c1ccccc1)S(=O)(=O)c1c[nH]c2ccc([N+](=O)[O-])cc12,10.4
2,N#Cc1c(SCC(=O)Nc2ccccc2)nsc1SCC(=O)Nc1ccccc1,5.19
3,Cc1ccc(Cl)c(NC(=O)CSc2n[nH]c(=O)n2C2CC2)c1Cl,12.2
4,O=C(Nc1nnc(SCc2ccc(F)cc2)s1)C1CC(=O)N(Cc2ccccc2)C1 (centres unmarked),7.92
5,CN(C)S(=O)(=O)N1CCC(Oc2ccc(C(=O)NCC(C)(C)CO)cc2)CC1,14.8
6,COc1cc(NC(=O)C2CCN(S(=O)(=O)c3cnc[nH]3)CC2)cc(OC)c1OC,2.95
7,COCCn1c(=O)c2c(nc3n2CC(C)CN3Cc2ccccc2)n(C)c1=O (centres unmarked),-0.925
8,COc1ccc(CCNC(=O)C2CCCN2C(=O)Nc2cccc(C(C)=O)c2)cc1OC (centres unmarked),0.937
9,COc1ccc(NC(=O)c2ccc3ncsc3c2)c2ccccc12,8.29
10,OC(CNCCCCNCC(O)C(F)(F)F)C(F)(F)F (centres unmarked),15.8
11,CCOC(=O)C1CCN(C(=O)CN2C(=O)C(C(C)C)Oc3ccccc32)CC1 (centres unmarked),-2.01
12,Cn1c(SCC(=O)NCc2cccs2)nnc1-c1ccc(S(=O)(=O)N2CCCC2)cc1,-1.66
13,COC(=O)[C@H](CC(C)C)NC(=O)Nc1ccc(S(N)(=O)=O)cc1,5.33
14,Cc1cc(NC(=O)CN(C)CCOc2ccccc2)ccc1Br.O=C(O)C(=O)O,10.5
15,Cn1ncc([N+](=O)[O-])c1C(=O)Nc1cccc2ccccc12,4.85
16,CCCCN(C(=S)Nc1ccc(F)cc1)c1c(N)n(CCC)c(=O)[nH]c1=O,1.92
17,CCSc1nc2sc3c(c2c2[n+]1CC(CBr)O2)CCCC3.[Br-] (centres unmarked),13.8
18,CCc1nc(NCCN2CCOCC2)c2oc3ccccc3c2n1.Cl,0.594
19,COc1ccc(Cc2nnc(SCC(=O)Nc3cc(Cl)ccc3OC)[nH]c2=O)cc1,9.8
20,Cc1cccc(CNC(=O)CCn2ccc3cc(S(=O)(=O)N4CCCC4)ccc32)c1,8.44
21,CCCn1c(=O)c2[nH]cnc2n(-c2ccccc2C)c1=O,13.3
22,COc1ccc(S(=O)(=O)N2CCN(C)CC2)c(C)c1,11.9
23,Cc1cc(C)cc(N(CC(=O)NCC2CCCO2)S(=O)(=O)c2c(C)noc2C)c1 (centres unmarked),-0.711

row,Compound,"hERG current change (%, negative = inhibition) at 1uM [%]"
1,CCCCN(C(=O)CCC(=O)O)C1CC(=O)N(c2ccc(OCCC)cc2)C1=O (centres unmarked),11.5
2,Cc1ccc(NC(=O)c2nccnc2C(=O)O)cc1C,9.83
3,O=C(COC(=O)c1ccccc1O)Nc1ccc(OC(F)F)cc1,6.17
4,Cc1csc(SCC(=O)NC(C)c2ccc(F)cc2)n1 (centres unmarked),2.54
5,CCC1Oc2ccccc2N(Cc2ccccc2C)C1=O (centres unmarked),-10.3
6,COC(=O)c1sccc1NC(=O)C1C2C=CC(C2)C1C(=O)O (centres unmarked),14.9
7,COc1cc2c(cc1OC)[C@@H]1C(=O)c3ccc4c(c3O[C@@H]1CO2)C[C@H](C(C)C)O4,11.5
8,COCCNC(=S)N/N=C(\C)c1ccccc1O,14.4
9,O=C(CN1CCCC1=O)NCCc1ccccc1,8.88
10,COC(=O)CN1C(=O)C2(C(C#N)=C(N)Oc3c2c(C)nn3-c2ccccc2)c2ccccc21 (centres unmarked),6.69
11,O=C(NNS(=O)(=O)c1ccc(F)cc1)C1CCN(S(=O)(=O)c2ccccc2)CC1,9.61
12,O=C1N=C(N2CCOCC2)S/C1=C\c1cccs1,1.6
13,O=[N+]([O-])c1ccc(/C=N/n2c(C3CCCCC3)n[nH]c2=S)cc1,14.8
14,O=C(Cc1ccc(Cl)cc1)OCc1nnc(-c2ccccc2)o1,9.21
15,CCCc1ncc(C(O)c2cccc3ccccc23)n1C (centres unmarked),-8.21
16,CSc1nc2nc(-c3ccc(F)cc3)c(CCN3CCN(C)CC3)cn2n1,9.08
17,CN1CCc2c(sc(NC(=O)CS(=O)(=O)c3ccc(F)cc3)c2C(N)=O)C1.Cl,-21.4
18,CSCCC(NC(=O)c1ccccc1Br)C(=O)NCC1CCCCC1 (centres unmarked),7.69
19,O=c1ccn(CCc2c[nH]c3ccccc23)c2c1CCCC2,4.21
20,CCC(C(=O)NC(C)c1ccccc1)C(=O)NC(C)c1ccccc1 (centres unmarked),14.4
21,Cc1cc2oc(=O)cc(CN3CCCCC3C)c2cc1Cl (centres unmarked),3.08
22,O=C(N/N=C/c1cccc([N+](=O)[O-])c1)c1cccs1,7.41
23,Cc1cc(-c2nn(-c3ccccc3F)cc2CNCCc2cnc[nH]2)c(C)s1,-13.8

row,Compound,"hERG current change (%, negative = inhibition) at 1uM [%]"
1,COC(=O)c1ccc(Cl)c(NC(=O)CN(c2ccc(OC)cc2)S(=O)(=O)c2ccccc2)c1,7.1
2,COC(=O)c1ccc(NC(=O)C(=O)N2CCN(C(=S)Nc3ccccc3OC)CC2)cc1,1.89
3,COc1cccc(NC(=O)N2CCN(c3ccc(C(F)(F)F)cn3)CC2)c1,10.4
4,O=C(Nc1ccc(Cl)c(Cl)c1)c1ccccc1,4.25
5,Cc1ccc(C)c(S(=O)(=O)N2CCN(C(=O)Cn3c(=O)cnc4ccccc43)CC2)c1,13.2
6,O=C(N/N=C\c1c[nH]c2ccccc12)c1ccc(O)cc1,14.6
7,COCCNC(=O)c1ccccc1N(Cc1ccccc1)S(=O)(=O)c1ccccc1,12.9
8,CCOc1ccc(NC(=O)CSc2nc3cccnc3n2CCOC)cc1,0.477
9,Cc1cccc(OCC(=O)Nc2cc(NC(=O)COc3cccc(C)c3C)cc(C(=O)O)c2)c1C,16.1
10,COC(=O)c1cc(-c2c(C)oc3cc(OC)ccc3c2=O)c(C)o1,5.85
11,Cc1sc2ncnc(Sc3ccccc3C(=O)Nc3ccc(C#N)cc3)c2c1C,2.6
12,CC(=O)Nc1ccc(S(=O)(=O)N2CCCN(S(=O)(=O)c3ccc(NC(C)=O)cc3)CC2)cc1,5.58
13,COc1ccc(-n2nc(N)c(C(N)=O)n2)cc1,16.9
14,CN1/C(=C\C(=O)CSc2cccc[n+]2[O-])C(C)(C)c2ccccc21,15.8
15,O=C1C2CCCN2C(c2ccc(Cl)c(Cl)c2)N1c1ccccn1 (centres unmarked),16.3
16,CCNC(=O)COC(=O)c1ccc(S(=O)(=O)N2CCCCCC2)cc1,4.58
17,O=[N+]([O-])c1c(C(Cl)Cl)nn(-c2ccccc2)c1N1CCOCC1,5.49
18,COc1ccc(N2CC(C(=O)N/N=C/c3ccc([N+](=O)[O-])cc3)CC2=O)cc1 (centres unmarked),-17.6
19,CC1CCC2C(=O)N(c3cccc(C(=O)Nc4ccccc4Cl)c3)C(=O)C2C1 (centres unmarked),12.3
20,COCCn1c(SCC(=O)N2CCCCC2)nc2cccnc21,9.95
21,CCN(C(=O)c1cn(CC)c(=O)c2cc(OC)c(OC)cc12)c1ccccc1C,16.9
22,Br.COc1ccc(-c2ccncc2)cc1OC,9.37
23,CCOc1ccc(S(=O)(=O)Nc2cccc(C(=O)NCC(c3ccccc3)N(C)C)c2)cc1 (centres unmarked),18.3

row,Compound,"hERG current change (%, negative = inhibition) at 1uM [%]"
1,Fc1cc(F)c2nc(N3CCOCC3)sc2c1,14.4
2,Cc1cccc(CCN2CCN=C2N(C)C)c1,6.51
3,Cc1ccc(C(=O)N/C(=C\c2cccnc2)C(=O)N2CCCC2)cc1,10.2
4,CC(C)c1ccc(NC(=O)Cc2ccc(NC3=NC4CS(=O)(=O)CC4S3)cc2)cc1 (centres unmarked),16.1
5,COc1cc(NC(=O)c2cccnc2)c(Cl)cc1NC(=O)c1ccc(Cl)cc1,1.5
6,COc1ccc2sc(SCCCS(=O)(=O)O)[n+](CCCS(=O)(=O)[O-])c2c1,15.8
7,O=C(COc1ccc(F)cc1F)Nc1cccnc1,14.1
8,CC(C)(C)c1ccc(OCCn2ccccc2=O)cc1,1.97
9,CC1=C(Cl)C2=NS(=O)(=O)CCN2C=C1Cl,8.42
10,COc1cc(C(=S)N2CCOCC2)ccc1OC(=O)c1ccccc1,9.48
11,CC(C)c1ccc(NC(=O)COc2ccc(C3SCCS3)cc2)cc1,13.1
12,COc1ccc2c(c1)-c1nc(/N=C/c3cccc(OC)c3O)sc1CC2,14.3
13,O=C(Cn1nc(C(=O)O)c2ccccc2c1=O)Nc1ccc2c(c1)OCO2,9.39
14,COC(=O)c1cc(-c2ccc(F)cc2)n(-c2ccccc2)n1,13.4
15,COc1cccc(C(=O)Nc2c(C(N)=O)oc3ccccc23)c1,7.42
16,Cn1c(=S)[nH]c2ccccc21,9.19
17,COC(=O)c1sc2ncn(CC(=O)N(C)C3CCCCC3)c(=O)c2c1C,12.9
18,O=C(O)c1ccc2c(c1)C(=O)N(c1cc(C(=O)O)ccc1Br)C2=O,-8.05
19,COc1ccccc1C(CC(=O)c1ccccc1)CC(=O)c1ccccc1,14.2
20,C=CCn1c(SCC(=O)NC2CCCCC2)nnc1C(C)NC(=O)c1cccs1 (centres unmarked),-1.08
